About 14,000 (4.5%) of roughly 310,000 compounds showed an effect of 50% or more. Effects have a minus sign here. The list shows a part of the results.
Target: human ether-à-go-go-related gene (hERG) potassium channel (human, UniProt Q12809)
Test: primary screen, population patch clamp on CHO cells stably expressing hERG
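Further: peak tail current of the secondary pulse compared with the same well before compound.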

Chain of human ether-à-go-go-related gene (hERG) potassium channel (Q12809 whole entry, looked up): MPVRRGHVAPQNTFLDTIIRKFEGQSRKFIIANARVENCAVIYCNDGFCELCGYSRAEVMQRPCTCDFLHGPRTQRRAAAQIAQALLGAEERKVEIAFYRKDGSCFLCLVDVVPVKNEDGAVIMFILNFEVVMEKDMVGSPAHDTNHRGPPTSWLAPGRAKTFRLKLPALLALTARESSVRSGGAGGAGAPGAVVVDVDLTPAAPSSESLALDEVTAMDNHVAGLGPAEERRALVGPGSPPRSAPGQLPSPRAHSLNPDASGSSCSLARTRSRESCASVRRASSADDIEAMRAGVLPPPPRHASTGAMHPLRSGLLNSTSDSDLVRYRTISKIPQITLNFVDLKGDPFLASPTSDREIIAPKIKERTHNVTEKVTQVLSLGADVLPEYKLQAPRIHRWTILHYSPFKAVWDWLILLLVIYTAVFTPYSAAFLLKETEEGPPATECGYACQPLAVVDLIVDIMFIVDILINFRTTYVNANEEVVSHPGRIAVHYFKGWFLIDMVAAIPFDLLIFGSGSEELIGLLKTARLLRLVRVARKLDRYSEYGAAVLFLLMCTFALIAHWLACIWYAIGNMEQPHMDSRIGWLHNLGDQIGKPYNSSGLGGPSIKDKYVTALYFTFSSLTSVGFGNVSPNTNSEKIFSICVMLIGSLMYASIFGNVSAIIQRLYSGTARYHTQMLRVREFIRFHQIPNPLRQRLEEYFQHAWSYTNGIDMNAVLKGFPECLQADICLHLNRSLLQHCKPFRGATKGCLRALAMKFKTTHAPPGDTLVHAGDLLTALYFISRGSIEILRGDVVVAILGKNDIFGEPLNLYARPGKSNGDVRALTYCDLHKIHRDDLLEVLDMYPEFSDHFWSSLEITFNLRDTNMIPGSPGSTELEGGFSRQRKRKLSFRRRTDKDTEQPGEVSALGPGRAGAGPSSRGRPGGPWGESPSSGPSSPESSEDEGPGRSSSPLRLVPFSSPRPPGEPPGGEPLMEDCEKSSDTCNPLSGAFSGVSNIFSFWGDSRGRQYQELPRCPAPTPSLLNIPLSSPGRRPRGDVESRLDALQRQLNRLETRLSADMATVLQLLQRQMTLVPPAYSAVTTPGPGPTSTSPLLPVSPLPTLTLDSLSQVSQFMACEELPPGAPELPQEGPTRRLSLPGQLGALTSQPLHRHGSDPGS

Compound	hERG current change (%, negative = inhibition) at 10uM
O=C(Cc1ccc(F)cc1)N1CCC2(CC1)NCCc1[nH]cnc12	14.1%
N#Cc1nc(COc2ccccc2)oc1N1CCC(Cc2ccccc2)CC1	15.4%
CSc1ncccc1C(=O)OCc1ccc(C#N)cc1.Cl	1.2%
Cc1ccc(S(=O)(=O)N2CCC(C(=O)NCCCOC(C)C)CC2)cc1	-3.72%
O=C(OCn1nnc2ccccc2c1=O)c1ccc(N2CCOCC2)c([N+](=O)[O-])c1	-13.5%
CCN(CC)CC(C)CNC(=O)CN1C(=O)CSc2ccc(S(=O)(=O)N3CCOCC3)cc21 (centres unmarked)	12.4%
COc1ccccc1NC(=S)NNC(=O)c1cc(C)n(C)n1	12.6%
N/C(=N\OC(=O)c1ccc(Cl)cc1Cl)c1ccncc1	0.0402%
Cc1ccc(C(=O)Nc2ccnc(-c3cccnc3)n2)cc1	17.9%
COc1cccc2cc(C(=O)Nc3cc(Cl)ccc3N3CCOCC3)c(=O)oc12	30.1%
CCN(CC)S(=O)(=O)c1ccc2c(c1)c(=O)c(C(=O)NCCN(C)CCc1ccccc1)cn2C	-67.1%
Cc1ccc([N+](=O)[O-])cc1NC(=O)CN(C(=O)c1ccccc1Cl)C1CCCCC1	-25.3%
O=C(CCS(=O)(=O)c1ccccc1)N1CCN(c2ccccc2)CC1	-3.31%
CCCn1cnc2c(N)c(C)c(C)cc21	3.71%
O=S1(=O)CCN2C(c3ccc4c(c3)CCCC4)=CSC2=N1	4.9%
COc1ccc(Cl)cc1-n1c(=S)sc2c(=O)[nH]c(SCC(=O)C(C)(C)C)nc21	27.6%
CCOc1ccc2nc(NC(=O)CSCC(=O)Nc3cc(C)on3)sc2c1	28.7%
O=C(Nc1ccc(NC(=S)NC(=O)c2ccco2)cc1)c1ccccc1	-1.53%
C=CCN(C(=O)CNC(=O)c1ccco1)C(C(=O)NC1CCCC1)c1ccc(OC)cc1 (centres unmarked)	6.79%

Compound	hERG current change (%, negative = inhibition) at 10uM
COCCNC(=O)CCC(=O)NNc1nc2ccccc2c2nc(C)nn12	0.57%
O=C(c1cccs1)N(CC1CCCO1)c1nc(-c2ccccc2)cs1 (centres unmarked)	2.57%
COc1cc(NC(=O)CS(=O)(=O)c2ccc(C)cc2)cc(OC)c1OC	0.3%
CCCc1ccc2oc(C(=O)N3CCC(C(N)=O)(N4CCCCC4)CC3)c(C)c2c1	-7.06%
O=C(O)C(Oc1ccc2c(-c3ccccc3)cc(=O)oc2c1)c1ccccc1 (centres unmarked)	10.1%
Cc1cc2c(=O)n(C)c(SCC(=O)Nc3ccccc3)nc2s1	20%
O=C(N/N=C/c1cccs1)C(=O)Nc1cccc(Cl)c1	24%
CC1(C)Oc2ccc(C(=O)N3CCc4ccccc43)cc2N(CC(=O)N2CCCC2)C1=O	-8.36%
CCN(c1ccccc1)S(=O)(=O)c1ccc(Cl)c(C(=O)NCCc2ccc(OC)cc2)c1	-18.1%
Cc1cc(C)n(CCNS(=O)(=O)c2ccc(Cl)cc2)n1	-5.97%
CCCCOC(=O)Nc1nccs1	25.9%
O=C1c2cccc(Sc3ccccc3)c2C(=O)c2c(Sc3ccccc3)cccc21	2.51%
COc1ccccc1NC(=O)c1nn(-c2cccc(C(F)(F)F)c2)ccc1=O	5.19%
COc1ccc(CCNC(=O)CN(C)S(=O)(=O)c2ccc(Br)s2)cc1OC	-49.4%
CC(C)(C)C(=O)Nc1ccc2oc(-c3cc(F)c(F)cc3Cl)nc2c1	14%
COc1ccc(NS(=O)(=O)c2ccc(C)cc2)c([N+](=O)[O-])c1	-15%
O=S(=O)(N1CCOCC1)N1CCN(c2ccc(F)cc2)CC1	-31.9%
O=C(N/N=C/c1cccc(Br)c1)c1ccc(N2CCCC2=O)cc1	-57.6%
COc1cccc(-c2nnc(SCc3cccnc3)o2)c1	-6.61%

Compound	hERG current change (%, negative = inhibition) at 10uM
CC(C)c1ccc(CNC(=O)C(=O)NCCCn2ccnc2)cc1	-7.7%
COc1ccc(CNC(=O)C(C)NC(=O)c2cc3ccccc3o2)cc1 (centres unmarked)	-12.1%
CN(C)c1cccc(C(=O)OCC(=O)N(Cc2ccccc2)C2CCS(=O)(=O)C2)c1 (centres unmarked)	-0.837%
Cc1cc(Br)cn2cc(C(=O)O)nc12	31.8%
COc1cccc(-c2nnc(N(C)C(=O)C3CCOC3)s2)c1 (centres unmarked)	-13.1%
CCOC(=O)c1c(C)[nH]c(C(=O)N/N=C/c2cccc(OC)c2)c1C	-1.43%
CCS(=O)(=O)Nc1cccc(C2=NN(S(=O)(=O)c3ccc(F)cc3)C(c3cccs3)C2)c1 (centres unmarked)	-4.12%
C/C(=N\NC(=O)c1cccc(C)c1)c1cccc(NC(=O)c2ccco2)c1	-43.4%
O=C(Oc1ccc(Cl)c2cccnc12)N1CCCCCC1	5.53%
CCOC(=O)c1cc2occc2n1CC(=O)N1CCCc2ccccc21	-17.3%
O=C(CSc1nnc(-c2ccncc2)n1-c1ccccc1)NC1CC1	4.69%
Cc1cccc(C)c1NC(=O)CNC(=O)Cc1c[nH]c2ccccc12	9.32%
COc1cc(C)c(C(C)C)cc1S(=O)(=O)NCCCn1ccnc1	-9.23%
CCN(CC1COc2ccccc2O1)C(=O)c1ccc(Cl)c(S(=O)(=O)N2CC(C)OC(C)C2)c1 (centres unmarked)	-35.3%
CC(NC(=O)NC(=O)c1ccc(Cl)cc1)c1ccccc1 (centres unmarked)	15%
CCN(CC)CCn1cnc2c([nH]c3cccc(OC)c32)c1=O	-8.27%
CSCCC(NC(=O)/C(=C\c1ccc(Cl)cc1)NC(=O)c1ccccc1)C(=O)O (centres unmarked)	21.1%
O=C(c1ccccc1[N+](=O)[O-])N1CCN(c2ccc(N3CCOCC3)nn2)CC1	0.769%

Source: article PMC4336329 (PLoS ONE, 2015)
